Results are given in words; binding and its absence hold for the method and conditions named. For some assays here: Binding seen in cells or lysates may run through a third protein. Some results given as binding are weak or reduced against the parent protein; the word gives no strength. Where a sequence is shown, tags or fusion partners need not be part of it. One block for each binder: values may come before it.
What was measured:
[1] = molecular target: T1, TMEM63B with GFP tag and TMEM63B with FLAG tag co-expressed (two differently tagged copies of mouse TMEM63B) (mouse), Q3TWI9; assay: co-IP; TMEM63B, same protocol as for TMEM63C (GFP resin and Flag resin, DDM/CHS extract of HEK293S cells, western blot), lysis buffer pH 8.0; no cross-linking; details: remark: other sources report otherwise
T1 chain: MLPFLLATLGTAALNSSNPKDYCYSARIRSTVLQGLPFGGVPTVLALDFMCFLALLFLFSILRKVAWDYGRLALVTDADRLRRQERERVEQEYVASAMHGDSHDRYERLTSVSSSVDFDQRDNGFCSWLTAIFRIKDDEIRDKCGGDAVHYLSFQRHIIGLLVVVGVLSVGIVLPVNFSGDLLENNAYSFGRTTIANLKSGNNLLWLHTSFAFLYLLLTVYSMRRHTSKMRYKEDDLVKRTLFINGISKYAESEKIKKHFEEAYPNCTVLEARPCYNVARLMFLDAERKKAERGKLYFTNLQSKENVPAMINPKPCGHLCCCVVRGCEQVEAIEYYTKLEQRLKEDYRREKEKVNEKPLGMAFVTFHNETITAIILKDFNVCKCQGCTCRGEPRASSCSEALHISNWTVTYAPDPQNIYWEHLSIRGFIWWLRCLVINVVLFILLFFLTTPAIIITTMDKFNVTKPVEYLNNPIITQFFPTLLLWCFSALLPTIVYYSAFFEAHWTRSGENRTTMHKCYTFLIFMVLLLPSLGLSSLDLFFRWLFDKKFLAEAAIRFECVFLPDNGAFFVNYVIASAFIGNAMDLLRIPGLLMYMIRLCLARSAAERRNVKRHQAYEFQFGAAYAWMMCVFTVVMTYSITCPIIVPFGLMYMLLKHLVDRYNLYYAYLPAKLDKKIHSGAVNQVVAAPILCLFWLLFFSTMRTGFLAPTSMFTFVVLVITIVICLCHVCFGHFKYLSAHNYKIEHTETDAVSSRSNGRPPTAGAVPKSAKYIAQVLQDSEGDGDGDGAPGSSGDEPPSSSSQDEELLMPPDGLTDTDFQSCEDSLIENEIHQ

[2] = molecular target: mouse TMEM63C (purified, GFP tag removed) (mouse) (UniProt Q8CBX0); assay: cryo-EM structure; purified TMEM63C in LMNG/CHS, 50 mM Tris pH 7.0, 150 mM NaCl, 1 mg/ml; single-particle cryo-EM, 2D averages and 3.56 Å map; both purified
[3] = molecular target: TMEM63C-FLAG (expressed alone, cross-linked in the membrane) (mouse) (UniProt Q8CBX0); assay: cross-linking; TMEM63C-FLAG in isolated HEK293S membranes, not extracted; 0.02% glutaraldehyde, 4 °C, 30 min, stopped with 50 mM Tris 7.0; SDS-PAGE and western blot
[4] = molecular target: TMEM63C-GFP and TMEM63C-FLAG co-expressed (two differently tagged copies of mouse TMEM63C) (mouse) (UniProt Q8CBX0); assay: co-IP; as the co-IP without cross-linking, but cell membrane purified and cross-linked with glutaraldehyde before extraction with DDM; GFP and FLAG beads, western blot
[5] = molecular target: TMEM63C-GFP and TMEM63C-FLAG co-expressed (two differently tagged copies of mouse TMEM63C) (mouse) (UniProt Q8CBX0); assay: co-IP; TMEM63C-GFP and TMEM63C-FLAG co-expressed in HEK293S; extracted with 1% DDM, 0.1% CHS, 20 mM Hepes pH 7.0, 150 mM NaCl, 10% glycerol; GFP resin and Flag resin, 4 °C overnight; western blot with anti-GFP and anti-Flag; no cross-linking

B1: TMEM63B with GFP tag and TMEM63B with FLAG tag co-expressed (two differently tagged copies of mouse TMEM63B), Q3TWI9 1-832 (protein)
chain: MLPFLLATLGTAALNSSNPKDYCYSARIRSTVLQGLPFGGVPTVLALDFMCFLALLFLFSILRKVAWDYGRLALVTDADRLRRQERERVEQEYVASAMHGDSHDRYERLTSVSSSVDFDQRDNGFCSWLTAIFRIKDDEIRDKCGGDAVHYLSFQRHIIGLLVVVGVLSVGIVLPVNFSGDLLENNAYSFGRTTIANLKSGNNLLWLHTSFAFLYLLLTVYSMRRHTSKMRYKEDDLVKRTLFINGISKYAESEKIKKHFEEAYPNCTVLEARPCYNVARLMFLDAERKKAERGKLYFTNLQSKENVPAMINPKPCGHLCCCVVRGCEQVEAIEYYTKLEQRLKEDYRREKEKVNEKPLGMAFVTFHNETITAIILKDFNVCKCQGCTCRGEPRASSCSEALHISNWTVTYAPDPQNIYWEHLSIRGFIWWLRCLVINVVLFILLFFLTTPAIIITTMDKFNVTKPVEYLNNPIITQFFPTLLLWCFSALLPTIVYYSAFFEAHWTRSGENRTTMHKCYTFLIFMVLLLPSLGLSSLDLFFRWLFDKKFLAEAAIRFECVFLPDNGAFFVNYVIASAFIGNAMDLLRIPGLLMYMIRLCLARSAAERRNVKRHQAYEFQFGAAYAWMMCVFTVVMTYSITCPIIVPFGLMYMLLKHLVDRYNLYYAYLPAKLDKKIHSGAVNQVVAAPILCLFWLLFFSTMRTGFLAPTSMFTFVVLVITIVICLCHVCFGHFKYLSAHNYKIEHTETDAVSSRSNGRPPTAGAVPKSAKYIAQVLQDSEGDGDGDGAPGSSGDEPPSSSSQDEELLMPPDGLTDTDFQSCEDSLIENEIHQ
binding [1]: binds

B3: TMEM63C-FLAG (expressed alone, cross-linked in the membrane) (protein, UniProt Q8CBX0 1-802)
chain: MSAFPDSMDQKFHNMTVNECFQSRSTVLQGQPFGGIPTVLVLNIILWVFVVLLYSFLRKAAWDYGRLALLIHNDSLTSLIYGEQSEKSSPSEVSLEAERRDRGFSSWFFNSLTMRDRDLINKCGDDARIYITFQYHLIIFVLILCIPSLGIILPVNYIGTVLDWNSHFGRTTIVNVSTESKFLWLHSLFAFLYFLINLAFMGHHCLGFVPKKSLHFTRTLMITYVPTEIQDPEIISKHFHEAYPGCVVTRVHFCYDVRNLIDLDDQRRHAMRGRLYYTAKAKKTGKVMIKTHPCSRLCFCKCWTCFKEVDAEQYYSELEEQLTDEFNAELNRVQLKRLDLIFVTFQDARTVRRIYDDYKYIHCGRHPKQSSVTTIVKNYHWRVAHAPHPKDIIWKHLSIRRFSWWTRFIAINTFLFFLFFFLTTPAIIINTIDIYNVTRPIEKLQSPIVTQFFPSVLLWAFTVTMPLLVYLSAFLEAHWTRSSQNLIIVHKCYIFLVFMVVILPSMGLTSLHVFLRWLFDIYYLEHATIRFQCVFLPDNGAFFINYVITAALLGTGMELMRLGSLCTYCTRLFLSKSEPERVHIRKNQATDFQFGREYAWMLNVFSVVMAYSITCPIIVPFGLLYLCMKHITDRYNMYYSYAPTKLNAQIHMAAVYQAIFAPLLGLFWMLFFSILRVGSLHSITLFSMSSLIISVVIAFSGVFLGKLRIAQRYEQPEEETETVFDVEPSSTTSTPTSLLYVATVLQEPELNLTPASSPARHTYGTINSQPEEGEEESGLRGFARELDSAQFQEGLEMEGQSH
binding [3]: no binding

The remaining lines, values ahead:

binding [2]: no binding
B2: mouse TMEM63C (purified, GFP tag removed) (protein, UniProt Q8CBX0 1-802)
chain: MSAFPDSMDQKFHNMTVNECFQSRSTVLQGQPFGGIPTVLVLNIILWVFVVLLYSFLRKAAWDYGRLALLIHNDSLTSLIYGEQSEKSSPSEVSLEAERRDRGFSSWFFNSLTMRDRDLINKCGDDARIYITFQYHLIIFVLILCIPSLGIILPVNYIGTVLDWNSHFGRTTIVNVSTESKFLWLHSLFAFLYFLINLAFMGHHCLGFVPKKSLHFTRTLMITYVPTEIQDPEIISKHFHEAYPGCVVTRVHFCYDVRNLIDLDDQRRHAMRGRLYYTAKAKKTGKVMIKTHPCSRLCFCKCWTCFKEVDAEQYYSELEEQLTDEFNAELNRVQLKRLDLIFVTFQDARTVRRIYDDYKYIHCGRHPKQSSVTTIVKNYHWRVAHAPHPKDIIWKHLSIRRFSWWTRFIAINTFLFFLFFFLTTPAIIINTIDIYNVTRPIEKLQSPIVTQFFPSVLLWAFTVTMPLLVYLSAFLEAHWTRSSQNLIIVHKCYIFLVFMVVILPSMGLTSLHVFLRWLFDIYYLEHATIRFQCVFLPDNGAFFINYVITAALLGTGMELMRLGSLCTYCTRLFLSKSEPERVHIRKNQATDFQFGREYAWMLNVFSVVMAYSITCPIIVPFGLLYLCMKHITDRYNMYYSYAPTKLNAQIHMAAVYQAIFAPLLGLFWMLFFSILRVGSLHSITLFSMSSLIISVVIAFSGVFLGKLRIAQRYEQPEEETETVFDVEPSSTTSTPTSLLYVATVLQEPELNLTPASSPARHTYGTINSQPEEGEEESGLRGFARELDSAQFQEGLEMEGQSH

binding [4]: no binding
binding [5]: no binding
B4: TMEM63C-GFP and TMEM63C-FLAG co-expressed (two differently tagged copies of mouse TMEM63C) (protein, UniProt Q8CBX0 1-802)
chain: MSAFPDSMDQKFHNMTVNECFQSRSTVLQGQPFGGIPTVLVLNIILWVFVVLLYSFLRKAAWDYGRLALLIHNDSLTSLIYGEQSEKSSPSEVSLEAERRDRGFSSWFFNSLTMRDRDLINKCGDDARIYITFQYHLIIFVLILCIPSLGIILPVNYIGTVLDWNSHFGRTTIVNVSTESKFLWLHSLFAFLYFLINLAFMGHHCLGFVPKKSLHFTRTLMITYVPTEIQDPEIISKHFHEAYPGCVVTRVHFCYDVRNLIDLDDQRRHAMRGRLYYTAKAKKTGKVMIKTHPCSRLCFCKCWTCFKEVDAEQYYSELEEQLTDEFNAELNRVQLKRLDLIFVTFQDARTVRRIYDDYKYIHCGRHPKQSSVTTIVKNYHWRVAHAPHPKDIIWKHLSIRRFSWWTRFIAINTFLFFLFFFLTTPAIIINTIDIYNVTRPIEKLQSPIVTQFFPSVLLWAFTVTMPLLVYLSAFLEAHWTRSSQNLIIVHKCYIFLVFMVVILPSMGLTSLHVFLRWLFDIYYLEHATIRFQCVFLPDNGAFFINYVITAALLGTGMELMRLGSLCTYCTRLFLSKSEPERVHIRKNQATDFQFGREYAWMLNVFSVVMAYSITCPIIVPFGLLYLCMKHITDRYNMYYSYAPTKLNAQIHMAAVYQAIFAPLLGLFWMLFFSILRVGSLHSITLFSMSSLIISVVIAFSGVFLGKLRIAQRYEQPEEETETVFDVEPSSTTSTPTSLLYVATVLQEPELNLTPASSPARHTYGTINSQPEEGEEESGLRGFARELDSAQFQEGLEMEGQSH
